Laboratory results taken from PubChem BioAssay (NCATS).
The inconclusive results got no clear call from the source; some entries with a clear call stand among them for comparison. For part of these data: Potencies beside an inconclusive call are fits to weak or partial responses and may not hold up. For part of these data: A note “side channel” means that the fit belongs to a control or component signal, not to the main read-out. Activity calls are given as the source filed them. Unless noted, the call rests on the fitted dose curve; in most records, active means well fitted curve in the direction sought with a large enough effect; inconclusive means small, poorly fitted or top-dose-only effect, or another doubt; inactive means no such curve, though single readings can be large; an effect the other way counts as inactive or inconclusive.

Assays:
[1] = target: Ubiquitin carboxyl-terminal hydrolase 1 (Homo sapiens) (UniProt O94782); assay: Inhibitors of USP1/UAF1: Pilot qHTS (AID 504865); further: potency means the concentration at half of the fitted maximal effect;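 further: rhodamine fluorescence freed from ubiquitin-rhodamine substrate followed over time; nearly all actives have a fitted effect of over 35% in size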
How it was run: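 Enzyme-free wells gave the negative control, while test wells held 1nM USP1/UAF1 preincubated with compound for 15 min at room temperature. Ub-Rho at 150nM final started the reaction, and fluorescence at 480/540 nm was recorded kinetically.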

[2] = target: Estrogen receptor (Homo sapiens) (UniProt P03372); assay: qHTS assay for small molecule antagonists of estrogen receptor alpha signaling (AID 588513; active means well fitted curve in the direction sought with a large enough effect in the signal ratio, with a control signal flat, not every such curve was filed as active; inconclusive means small, poorly fitted or top-dose-only effect, or effect the other way, or a change in a side signal; inactive means no such curve, though single readings can be large or run the other way; the % refers to the signal ratio; further: potency means the concentration at half of the fitted maximal effect); details: ER-alpha-UAS-bla HEK293, beta-lactamase ratio, antagonist mode; activity, negative = inhibition: at 76.9 µM (top of the series) unless noted
How it was run: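 Antagonist-mode qHTS in ER-alpha-UAS-bla HEK 293 cells: compound titration, 0.5nM estradiol for 18 h, CCF4 fluorescence, Hill-derived IC50.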

[3] = target: Peroxisome proliferator-activated receptor gamma (Homo sapiens) (UniProt P37231); assay: qHTS assay for small molecule antagonists of peroxisome proliferator-activated receptor gamma signaling (AID 588537; active means well fitted inhibition curve with a large enough effect in the signal ratio, with a control signal flat, not every such curve was filed as active; inconclusive means small, poorly fitted or top-dose-only effect, or effect the other way, or a change in a side signal; the % refers to the signal ratio; further: potency means the concentration at half of the fitted maximal effect;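 further: reporter cells co-stimulated with 50 nM rosiglitazone agonist during compound treatment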; on activity, negative = inhibition: % of control where 0% means no effect); details: HEK293 PPARg-UAS-bla, beta-lactamase ratio, antagonist mode; activity, negative = inhibition: at 76.8 µM (top of the series)
How it was run: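 PPAR-gamma-UAS-bla HEK293 cells (3000/well, 1% charcoal/dextran-stripped FBS) were preincubated 6-6.5 h at 37 C, given titrated compounds, then stimulated with 50 nM rosiglitazone for 16 h. Beta-lactamase activity was read with CCF4 dye; IC50 came from Hill fits.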

[4] = target: Retinoic acid receptor RXR-alpha (Homo sapiens) (UniProt P19793); assay: qHTS assay for small molecule agonists of retinoid X receptor alpha signaling (AID 588544; calls by dose curve; further: potency means the concentration at half of the fitted maximal effect); details: HEK293T RXRa-UAS-bla, beta-lactamase reporter, 18 h; activation: at 76.7 µM (top of the series) unless noted
[5] = target: Thyroid hormone receptor beta (Homo sapiens) (UniProt P10828); assay: qHTS assay for small molecule agonists of thyroid hormone receptor beta signaling (AID 588545; calls by dose curve); details: TR-UAS-bla GripTite HEK 293, beta-lactamase ratio, agonist mode, 18 h; activation: at 76.7 µM, percent of T3 response, DMSO as zero
How it was run: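 HEK 293 TR-UAS-bla; agonist mode; 18 hrs, 37 C; CCF4, ex 405/em 460 and 530 nm; norm. T3 10 nM = 100%, DMSO = 0%; Hill fit → EC50, efficacy.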

[6] = target: Retinoic acid receptor RXR-alpha (Homo sapiens) (UniProt P19793); assay: qHTS assay for small molecule antagonists of retinoid X receptor alpha signaling (AID 588546; active means well fitted inhibition curve with a large enough effect in the signal ratio, with a control signal flat, not every such curve was filed as active; inconclusive means small, poorly fitted or top-dose-only effect, or effect the other way, or a change in a side signal; inactive means no such curve, though single readings can be large or run the other way; the % refers to the signal ratio; further: potency means the concentration at half of the fitted maximal effect;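 on max response: cells stimulated with 9-cis-retinoic acid as agonist; on the % scale 0 is the no-effect control and ±100 the full control effect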); details: HEK293T RXRa-UAS-bla, beta-lactamase ratio, antagonist mode
How it was run: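 Beta-lactamase reporter inhibition, read as CCF4 fluorescence ratio (ex 405, em 460/530 nm) after 2 h at RT. HEK293T UAS-bla cells, 2500/well, were stimulated with 9-cis-RA at 500 or 100 nM final alongside test compound for 18 h at 37 C.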

[7] = qHTS assay for small molecule agonists of the antioxidant response element (ARE) signaling pathway (AID 651741; active means well fitted activation curve with a large enough effect in the signal ratio; inconclusive means small, poorly fitted or top-dose-only effect, or effect the other way, or a change in a side signal; the % refers to the signal ratio; further: potency means the concentration at half of the fitted maximal effect; on activation: % of control where 0% means no effect); details: HepG2 ARE-bla reporter, beta-lactamase FRET ratio, 16 h; activation: at 96 µM (top of the series) unless noted
How it was run: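 ARE-bla HepG2 cells (beta-lactamase reporter under ARE control) were plated at 2,000 cells/well, preincubated 5 h at 37 C/5% CO2, then treated with DMSO-dissolved compounds for 16 h at 37 C; LiveBLAzer B/G FRET substrate added, fluorescence read after 2 h at room temperature.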

[8] = qHTS assay for small molecule agonists of the antioxidant response element (ARE) signaling pathway measured by Nrf2-dependant transcriptional activity (AID 720636; active means well fitted curve in the direction sought with a large enough effect in the repeat runs; inconclusive means weak or mixed curves; inactive means no such curve, though single readings can be large; an effect the other way counts as inactive or inconclusive; further: potency means the concentration at half of the fitted maximal effect)
How it was run: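 Attachment 6 hr at 37 C, then compound versus DMSO vehicle for 16 hr in ARE-luc HepG2 cells (1% dialyzed FBS); luminescence recorded 30 min after ONE-Glo addition at room temperature.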

[9] = target: Androgen receptor (Homo sapiens) (UniProt P10275); assay: qHTS assay for small molecule agonists of androgen receptor signaling (AID 588515; active means well fitted curve in the direction sought with a large enough effect in the signal ratio, with a control signal flat; inconclusive means small, poorly fitted or top-dose-only effect, or effect the other way, or a change in a side signal; inactive means no such curve, though single readings can be large or run the other way; the % refers to the signal ratio; further: on the % scale 0 is the no-effect control and ±100 the full control effect); details: AR-UAS-bla HEK293, beta-lactamase ratio, agonist 16 h; activation: stronger effect = higher value
How it was run: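 EC50 and efficacy came from Hill fits of titrations (up to 92 uM) normalized to 30 nM R1881 as 100% and DMSO as 0%. Compound exposure was 16 h at 37 C on AR-UAS-bla HEK293 cells, with a 405/460/530 nm CCF4 fluorescence read.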

[10] = target: Androgen receptor (Homo sapiens) (UniProt P10275); assay: qHTS assay for small molecule antagonists of androgen receptor signaling (AID 588516; active means well fitted curve in the direction sought with a large enough effect in the signal ratio, with a control signal flat, not every such curve was filed as active; inconclusive means small, poorly fitted or top-dose-only effect, or effect the other way, or a change in a side signal; inactive means no such curve, though single readings can be large or run the other way; the % refers to the signal ratio; further: on the % scale 0 is the no-effect control and ±100 the full control effect); details: AR-UAS-bla HEK293, beta-lactamase ratio, antagonist mode, 16 h; activity change, negative = inhibition: at 76.8 µM (top of the series)
How it was run: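 Antagonist-mode qHTS: inhibition of R1881 (10 nM)-driven beta-lactamase expression in GripTite HEK 293 cells is measured after 16 h; values are Hill-derived IC50s normalized between R1881 and DMSO wells.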

[11] = target: Bile acid receptor (Homo sapiens) (UniProt Q96RI1); assay: qHTS assay for small molecule antagonists of farnesoid X receptor signaling (AID 588526; calls by dose curve; further: potency means the concentration at half of the fitted maximal effect); details: HEK293T FXR-UAS-bla, beta-lactamase ratio, antagonist mode; activity change, negative = inhibition: at 76.7 µM (top of the series)
How it was run: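 Concentration-response titrations were fitted to the Hill equation for half-maximal inhibition and maximal response, with data normalised to 50 uM chenodeoxycholic acid and DMSO control wells. Cells: FXR-UAS-bla HEK293T, dialyzed FBS.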

[12] = target: Glucocorticoid receptor (Homo sapiens) (UniProt P04150); assay: qHTS assay for small molecule agonists of glucocorticoid receptor signaling (AID 588532; active means well fitted curve in the direction sought with a large enough effect in the signal ratio, with a control signal flat; inconclusive means small, poorly fitted or top-dose-only effect, or a change in a side signal; inactive means no such curve, though single readings can be large or run the other way; the % refers to the signal ratio; further: potency means the concentration at half of the fitted maximal effect); details: HeLa MMTV-bla, beta-lactamase ratio, agonist, 18 h; activation: stronger effect = higher value, percent of dexamethasone control, DMSO zero
How it was run: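 Stimulation of a glucocorticoid response element-driven beta-lactamase gene was measured in HeLa cells. Responses were scaled between DMSO basal and 0.1 uM dexamethasone, then fitted for half-maximal stimulation.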

[13] = target: Peroxisome proliferator-activated receptor delta (Homo sapiens) (UniProt Q03181); assay: qHTS assay for small molecule antagonists of peroxisome proliferator-activated receptor delta signaling (AID 588535; active means well fitted inhibition curve with a large enough effect in the signal ratio, with a control signal flat, not every such curve was filed as active; inconclusive means small, poorly fitted or top-dose-only effect, or effect the other way, or a change in a side signal; inactive means no such curve, though single readings can be large or run the other way; the % refers to the signal ratio; further: potency means the concentration at half of the fitted maximal effect); details: HEK293T PPARd-UAS-bla, beta-lactamase FRET ratio, 18 h; activity change, negative = inhibition: at 76.7 µM (top of the series) unless noted
How it was run: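 GeneBLAzer PPAR-delta-UAS-bla HEK293T cells in medium with 2% charcoal/dextran FBS were preincubated 5 hrs at 37 C, then given compounds, incubated 18 hrs at 37 C, and read by CCF4 beta-lactamase fluorescence; IC50 from Hill fits.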

[14] = target: Peroxisome proliferator-activated receptor gamma (Homo sapiens) (UniProt P37231); assay: qHTS assay for small molecule agonists of peroxisome proliferator-activated receptor gamma signaling (AID 588536; active means well fitted curve in the direction sought with a large enough effect in the signal ratio, with a control signal flat, not every such curve was filed as active; inconclusive means small, poorly fitted or top-dose-only effect, or effect the other way, or a change in a side signal; inactive means no such curve, though single readings can be large or run the other way; the % refers to the signal ratio;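 further: 0% = DMSO basal wells and 100% = rosiglitazone at 2 µM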); details: HEK293 PPARg-UAS-bla, beta-lactamase ratio, 16 h; activation: at 76.7 µM (top of the series), percent of rosiglitazone response, DMSO as zero unless noted
How it was run: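 PPAR-gamma-UAS-bla HEK293 cells in medium with 1% charcoal/dextran-treated FBS were exposed to compounds for 16 h at 37 C. Beta-lactamase activity was read with CCF4 substrate (405 nm excitation, 460/530 nm emission).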

[15] = target: Vitamin D3 receptor (Homo sapiens) (UniProt P11473); assay: qHTS assay for small molecule antagonists of vitamin D receptor signaling (AID 588541; calls by dose curve; further: potency means the concentration at half of the fitted maximal effect); details: HEK293T VDR-UAS-bla, beta-lactamase ratio, antagonist mode; activity change, negative = inhibition: at 76.7 µM (top of the series)
[16] = target: Thyroid hormone receptor beta (Homo sapiens) (UniProt P10828); assay: qHTS assay for small molecule antagonists of thyroid hormone receptor beta signaling (AID 588547; active means well fitted inhibition curve with a large enough effect in the signal ratio, with a control signal flat, not every such curve was filed as active; inconclusive means small, poorly fitted or top-dose-only effect, or effect the other way, or a change in a side signal; the % refers to the signal ratio; further: potency means the concentration at half of the fitted maximal effect); details: TR-UAS-bla HEK293, beta-lactamase ratio, antagonist mode, 18 h
How it was run: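 TR-UAS-bla GripTite HEK293 cells in 2% charcoal/dextran FBS medium were preincubated 4 h at 37 C, given compound (0.59 nM to 92 uM) plus 0.4 nM T3 (final) for 18 h, then CCF4 for 2 h at RT; Hill fit gave IC50.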

[17] = qHTS assay for small molecule activators of the p53 signaling pathway (AID 651743; active means well fitted activation curve with a large enough effect in the signal ratio, not every such curve was filed as active; inconclusive means small, poorly fitted or top-dose-only effect, or a change in a side signal; the % refers to the signal ratio; further: % of control where 0% means no effect); details: HCT-116 p53RE-bla, beta-lactamase FRET ratio, 16 h; activation: stronger effect = higher value
How it was run: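 p53RE-bla HCT-116 cells with a stably integrated beta-lactamase reporter under p53 response elements were plated, rested 5 hours at 37 C/5% CO2, then exposed to compounds in DMSO for 16 hours at 37 C. LiveBLAzer B/G FRET substrate was read after 2 hours at room temperature.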

[18] = qHTS assay for small molecule agonists of the antioxidant response element (ARE) signaling pathway measured by Nrf2-dependant transcriptional activity - cell viability counter screen (AID 720653; active means well fitted curve in the direction sought with a large enough effect in the repeat runs; inconclusive means weak or mixed curves; inactive means no such curve, though single readings can be large; an effect the other way counts as inactive or inconclusive; further: potency means the concentration at half of the fitted maximal effect); details: ARE-bla HepG2 viability, CellTiter-Glo ATP luminescence, 16 h; max response: stronger effect = lower value
How it was run: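 ARE-bla HepG2 cells (2,000/well) rested 5 hrs at 37C/5% CO2, then exposed to compounds in DMSO for 16 hrs. Viability was read in the same wells as intracellular ATP by luminescence, 30 min at room temperature after reagent addition.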

[19] = qHTS assay for cell viability of the p53RE-bla HCT-116 cell line (AID 743292); further: potency means the concentration at half of the fitted maximal effect; nearly all actives have a fitted effect of over 55% in size
How it was run: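 Compound-exposed HCT-116 (p53RE-bla) cells, 4,000 per well, were kept 16 h at 37 C following a 5 h preincubation. Cell number was estimated from total ATP by CellTiter-Glo luminescence read after 30 min at room temperature.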

[20] = target: 3',5'-cyclic-AMP phosphodiesterase 4B (Homo sapiens) (UniProt Q07343); assay: qHTS Assay for Inhibitors of PDE-IV (AID 607; active means well fitted activation curve with a large enough effect in the main read-out, with a control signal flat, not every such curve was filed as active; inconclusive means small, poorly fitted or top-dose-only effect, or effect the other way, or a change in a side signal; further: potency means the concentration at half of the fitted maximal effect); details: HEK293 ACTOne CNG channel cells, membrane potential fluorescence; activation (PDE inhibition): at 22.9 µM (top of the series)
How it was run: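 ACTOne HEK293 cells carry a modified cAMP-gated CNG channel and express endogenous PDE4; plated 1000 cells/well, compounds up to 22.9 uM final. Membrane-potential dye fluorescence (ex 535/em 590) was read; parental cells received 10 uM forskolin + 100 uM RO 20-1724.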

[21] = target: Cytochrome P450 3A4 (Homo sapiens) (UniProt P08684); assay: qHTS Assay for Activators of Cytochrome P450 3A4 (AID 885); further: nearly all actives have a fitted effect of over 65% in size
How it was run: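 20nM CYP3A4 + 25uM Luciferin-PPXE (=KM), 200mM KPO4; cpd 10 min RT; NADPH regen, 60 min RT; stop w/ detection buffer, 20 min; luminescence. Normalized to 57 uM ketoconazole.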

[22] = target: Mitogen-activated protein kinase 10 (Mus musculus) (UniProt Q61831); assay: JNK3 AlphaScreen Assay (AID 530; active means well fitted curve in either direction with a large enough effect, not every such curve was filed as active; inconclusive means small, poorly fitted or top-dose-only effect, or another doubt;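 further: kinase came from lysate of stimulated human HepG2 cells; signal reports phosphorylation of biotinylated GST-cJun 1-79 at Ser73 with 10 µM ATP; on the % scale 0 is the no-effect control and ±100 the full control effect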); details: JNK3 lysate, c-Jun phosphorylation; activity change, negative = inhibition: at 57.1 µM (top of the series)
How it was run: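 JNK3 came from HepG2 lysates pre-activated with IL-1beta and TNF-alpha and phosphorylated biotinylated GST-cJun (1-79) at 10 uM ATP, pH 7.6, room temperature. Compounds were titrated. AlphaScreen signal used anti-phospho-cJun (Ser73) antibody.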
Tags describe the fitted curve by direction and shape or compound fluorescence and quenching.

UniProt P19793, sequence (P19793 whole entry, looked up): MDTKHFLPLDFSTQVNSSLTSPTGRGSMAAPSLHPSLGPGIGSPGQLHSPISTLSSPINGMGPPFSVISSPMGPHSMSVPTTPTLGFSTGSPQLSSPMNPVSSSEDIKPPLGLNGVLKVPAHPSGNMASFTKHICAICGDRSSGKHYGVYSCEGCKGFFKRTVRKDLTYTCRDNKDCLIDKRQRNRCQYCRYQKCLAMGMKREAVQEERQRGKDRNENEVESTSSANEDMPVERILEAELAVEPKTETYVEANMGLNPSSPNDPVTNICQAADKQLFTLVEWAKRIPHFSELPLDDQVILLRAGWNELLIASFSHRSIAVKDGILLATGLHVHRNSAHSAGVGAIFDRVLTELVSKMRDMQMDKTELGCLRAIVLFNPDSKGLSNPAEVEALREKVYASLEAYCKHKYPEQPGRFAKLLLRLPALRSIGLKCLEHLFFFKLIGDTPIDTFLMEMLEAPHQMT
UniProt O94782, sequence (O94782 whole entry, looked up): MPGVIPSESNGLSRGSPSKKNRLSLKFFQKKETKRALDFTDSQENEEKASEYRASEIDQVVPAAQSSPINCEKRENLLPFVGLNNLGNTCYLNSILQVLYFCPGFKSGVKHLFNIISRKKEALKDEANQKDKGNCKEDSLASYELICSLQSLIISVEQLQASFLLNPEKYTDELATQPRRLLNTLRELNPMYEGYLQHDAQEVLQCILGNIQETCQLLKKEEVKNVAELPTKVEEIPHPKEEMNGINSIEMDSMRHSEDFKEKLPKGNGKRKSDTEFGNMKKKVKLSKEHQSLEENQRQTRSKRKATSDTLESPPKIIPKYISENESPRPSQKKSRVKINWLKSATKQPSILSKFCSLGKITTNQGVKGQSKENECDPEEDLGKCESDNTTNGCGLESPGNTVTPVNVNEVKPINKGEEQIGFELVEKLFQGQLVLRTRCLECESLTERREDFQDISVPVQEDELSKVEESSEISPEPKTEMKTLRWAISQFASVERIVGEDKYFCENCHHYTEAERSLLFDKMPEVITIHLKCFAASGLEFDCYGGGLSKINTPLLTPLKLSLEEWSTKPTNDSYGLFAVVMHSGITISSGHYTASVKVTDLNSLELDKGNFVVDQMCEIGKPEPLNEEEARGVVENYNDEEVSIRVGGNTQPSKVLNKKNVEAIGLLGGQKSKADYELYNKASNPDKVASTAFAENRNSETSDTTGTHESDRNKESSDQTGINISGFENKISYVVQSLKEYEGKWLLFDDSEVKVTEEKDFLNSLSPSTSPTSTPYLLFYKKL
UniProt Q07343, sequence (Q07343 whole entry, looked up): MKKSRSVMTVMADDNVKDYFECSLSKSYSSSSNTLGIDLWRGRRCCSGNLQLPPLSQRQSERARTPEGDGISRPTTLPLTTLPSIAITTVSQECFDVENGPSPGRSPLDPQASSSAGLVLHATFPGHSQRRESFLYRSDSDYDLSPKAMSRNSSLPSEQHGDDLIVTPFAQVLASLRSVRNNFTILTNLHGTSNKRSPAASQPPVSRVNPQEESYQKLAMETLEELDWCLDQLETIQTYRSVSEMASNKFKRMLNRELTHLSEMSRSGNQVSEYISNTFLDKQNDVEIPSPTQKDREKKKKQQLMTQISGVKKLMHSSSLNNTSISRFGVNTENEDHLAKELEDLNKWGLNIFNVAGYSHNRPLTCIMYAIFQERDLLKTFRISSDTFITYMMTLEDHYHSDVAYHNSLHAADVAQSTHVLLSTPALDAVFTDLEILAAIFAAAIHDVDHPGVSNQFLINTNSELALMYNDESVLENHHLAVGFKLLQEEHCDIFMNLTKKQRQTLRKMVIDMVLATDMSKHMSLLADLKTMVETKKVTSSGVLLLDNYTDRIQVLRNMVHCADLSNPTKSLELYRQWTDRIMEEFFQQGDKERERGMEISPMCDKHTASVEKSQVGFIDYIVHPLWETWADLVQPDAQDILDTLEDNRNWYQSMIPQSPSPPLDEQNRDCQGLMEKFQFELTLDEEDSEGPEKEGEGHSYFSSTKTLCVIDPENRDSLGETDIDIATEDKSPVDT
UniProt P10275, sequence (P10275 whole entry, looked up): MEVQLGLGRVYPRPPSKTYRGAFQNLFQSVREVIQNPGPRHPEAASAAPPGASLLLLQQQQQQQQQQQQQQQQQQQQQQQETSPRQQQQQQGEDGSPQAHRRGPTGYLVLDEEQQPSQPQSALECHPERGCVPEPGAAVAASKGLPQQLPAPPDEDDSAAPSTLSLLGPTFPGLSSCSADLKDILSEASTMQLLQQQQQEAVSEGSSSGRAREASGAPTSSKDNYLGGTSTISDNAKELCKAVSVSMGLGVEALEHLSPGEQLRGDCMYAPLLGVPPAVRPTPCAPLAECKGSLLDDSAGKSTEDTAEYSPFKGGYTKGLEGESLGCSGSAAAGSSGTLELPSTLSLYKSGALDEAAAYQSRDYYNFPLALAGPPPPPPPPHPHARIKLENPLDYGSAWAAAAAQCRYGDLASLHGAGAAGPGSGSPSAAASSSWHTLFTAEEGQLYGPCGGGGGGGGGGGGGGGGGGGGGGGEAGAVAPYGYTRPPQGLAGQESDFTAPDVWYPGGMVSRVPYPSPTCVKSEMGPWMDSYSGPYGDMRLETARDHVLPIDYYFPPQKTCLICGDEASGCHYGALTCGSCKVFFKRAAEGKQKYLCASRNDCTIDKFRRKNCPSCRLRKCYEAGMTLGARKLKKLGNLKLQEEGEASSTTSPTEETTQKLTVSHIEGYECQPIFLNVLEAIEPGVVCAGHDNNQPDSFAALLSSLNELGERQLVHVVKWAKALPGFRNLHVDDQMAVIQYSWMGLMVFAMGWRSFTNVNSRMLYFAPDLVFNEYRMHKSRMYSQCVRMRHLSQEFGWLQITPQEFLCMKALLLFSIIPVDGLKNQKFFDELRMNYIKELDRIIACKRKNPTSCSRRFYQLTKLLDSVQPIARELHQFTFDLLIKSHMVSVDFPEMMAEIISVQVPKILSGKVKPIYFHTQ
UniProt P03372, sequence (P03372 whole entry, looked up): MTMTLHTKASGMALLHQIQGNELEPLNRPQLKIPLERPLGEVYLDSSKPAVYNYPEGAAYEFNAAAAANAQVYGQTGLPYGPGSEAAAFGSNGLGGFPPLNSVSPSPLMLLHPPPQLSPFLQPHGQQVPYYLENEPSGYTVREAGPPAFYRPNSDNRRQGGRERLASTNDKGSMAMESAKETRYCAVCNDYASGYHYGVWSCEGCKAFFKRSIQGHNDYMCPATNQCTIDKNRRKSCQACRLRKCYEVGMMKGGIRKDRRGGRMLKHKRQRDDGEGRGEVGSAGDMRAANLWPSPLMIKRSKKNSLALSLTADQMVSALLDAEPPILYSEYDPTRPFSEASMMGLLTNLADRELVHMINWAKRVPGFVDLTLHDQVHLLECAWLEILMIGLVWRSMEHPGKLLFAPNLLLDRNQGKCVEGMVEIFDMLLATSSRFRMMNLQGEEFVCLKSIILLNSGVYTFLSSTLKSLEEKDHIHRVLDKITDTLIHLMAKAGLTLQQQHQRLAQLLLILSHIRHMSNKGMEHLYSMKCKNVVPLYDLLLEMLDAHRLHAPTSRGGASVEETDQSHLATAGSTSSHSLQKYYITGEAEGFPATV
UniProt P10828, sequence (P10828 whole entry, looked up): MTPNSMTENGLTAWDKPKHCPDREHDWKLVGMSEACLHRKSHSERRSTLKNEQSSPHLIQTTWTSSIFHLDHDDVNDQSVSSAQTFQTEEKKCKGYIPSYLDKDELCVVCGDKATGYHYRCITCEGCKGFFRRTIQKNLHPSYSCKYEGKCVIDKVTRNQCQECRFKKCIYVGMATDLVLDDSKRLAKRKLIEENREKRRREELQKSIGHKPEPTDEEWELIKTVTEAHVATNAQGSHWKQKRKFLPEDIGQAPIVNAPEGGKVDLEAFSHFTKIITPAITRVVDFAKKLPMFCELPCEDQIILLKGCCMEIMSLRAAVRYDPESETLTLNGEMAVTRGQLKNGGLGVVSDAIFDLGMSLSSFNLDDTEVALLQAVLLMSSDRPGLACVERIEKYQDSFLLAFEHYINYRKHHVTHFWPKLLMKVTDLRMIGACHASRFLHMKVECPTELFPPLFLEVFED
UniProt Q03181, sequence (Q03181 whole entry, looked up): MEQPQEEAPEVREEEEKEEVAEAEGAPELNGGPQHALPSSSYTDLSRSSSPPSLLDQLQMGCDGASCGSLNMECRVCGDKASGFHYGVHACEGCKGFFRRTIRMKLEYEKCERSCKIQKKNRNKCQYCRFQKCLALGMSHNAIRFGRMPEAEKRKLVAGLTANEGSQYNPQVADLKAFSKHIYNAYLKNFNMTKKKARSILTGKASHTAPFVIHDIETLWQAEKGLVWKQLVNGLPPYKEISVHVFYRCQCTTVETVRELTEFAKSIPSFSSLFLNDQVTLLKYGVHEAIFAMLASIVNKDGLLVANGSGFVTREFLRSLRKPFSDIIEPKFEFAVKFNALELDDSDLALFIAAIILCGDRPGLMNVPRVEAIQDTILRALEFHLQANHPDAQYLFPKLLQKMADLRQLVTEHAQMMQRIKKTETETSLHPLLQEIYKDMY
UniProt P08684, sequence (P08684 whole entry, looked up): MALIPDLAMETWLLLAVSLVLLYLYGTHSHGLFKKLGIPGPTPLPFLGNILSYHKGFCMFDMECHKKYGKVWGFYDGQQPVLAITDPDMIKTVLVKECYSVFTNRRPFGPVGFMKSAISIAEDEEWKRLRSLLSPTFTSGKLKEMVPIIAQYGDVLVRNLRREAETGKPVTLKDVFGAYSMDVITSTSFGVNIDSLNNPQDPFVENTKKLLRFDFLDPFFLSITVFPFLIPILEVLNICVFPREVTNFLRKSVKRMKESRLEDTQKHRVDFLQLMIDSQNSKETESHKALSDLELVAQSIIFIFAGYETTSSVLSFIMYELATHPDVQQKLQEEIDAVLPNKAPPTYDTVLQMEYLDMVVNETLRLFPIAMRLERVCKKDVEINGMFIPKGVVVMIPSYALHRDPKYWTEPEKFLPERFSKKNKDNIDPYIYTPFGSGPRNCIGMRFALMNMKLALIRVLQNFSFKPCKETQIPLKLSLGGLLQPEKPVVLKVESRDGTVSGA

CCOP(=S)(OCC)SCn1c(=O)oc2cc(Cl)ccc21
active: Potency [7] 27.3 µM
inconclusive: Potency [1] 79.4 µM [inhibitor, partial curve, poor fit] | Potency [2] 39.8 µM [side channel, rising, single point] | activity, negative = inhibition [3] -52.2% | Potency [4] 35.5 µM [inhibitor, partial curve] | max response [6] -41.8% | Potency [8] 34.4 µM [activator, partial curve, poor fit]
inactive: activation [5] -13.5%

O=C1C=C2C(=CCOC2O)O1 (stereo not drawn)
active: Potency [1] 50.1 µM | Potency [3] 20 µM
inconclusive: Potency [2] 25.1 µM [side channel, rising, partial curve] | activation [9] -17.9% | activity change, negative = inhibition [10] -130% | Potency [11] 20 µM [falling, full curve] | Potency [12] 6.31 µM [side channel, falling, partial curve, poor fit] | Potency [13] 6.31 µM [inhibitor, full curve, poor fit] | activation [14] -34.3% | Potency [15] 25.1 µM [cytotoxic, side channel, full curve, poor fit] | Potency [4] 12.6 µM [inhibitor, full curve] | Potency [6] 20 µM [side channel, rising, single point] | Potency [16] 8.91 µM [side channel, rising, full curve, poor fit] | activation [7] -46.4% | activation [17] -4.19% | Potency [8] 4.33 µM [activator, partial curve, poor fit] | Potency [18] 12.6 µM [cytotoxic, partial curve, poor fit] | Potency [19] 11.2 µM [cytotoxic, full curve]

CCCN(CCC)[C@@H]1CCc2c(OC)cccc2[C@@H]1C
inconclusive: Potency [20] 6 µM [rising, partial curve] | Potency [1] 12.6 µM [inhibitor, partial curve, poor fit]

CC(=O)OC1C2C(OC(=O)Cc3ccccc3)C(C)CC2(OC(C)=O)C(=O)/C(C)=C/C2C(CC[C@@]13CO3)C2(C)C (stereo partly drawn)
inactive: Potency [21] | Potency [1]

Cc1ccc(O)cc1 (tested in a mixture with another compound)
inactive: activity change, negative = inhibition [22] 1.19% [at 11.4 µM]

C#CCN1C(C)=C(C(=O)CCO)[C@@H](c2cccc(-n3oo3)c2)C(C(=O)OC)=C1C
inconclusive: Potency [20] 15.1 µM [activator, partial curve] | Potency [1] 56.2 µM [inhibitor, partial curve, poor fit]
